Among all 310,000 compounds or so, about 2,200 (0.71%) showed an effect of 50% or more. The effect is printed as a negative number. This is one part of the list.

human ether-à-go-go-related gene (hERG) potassium channel, sequence (Q12809 whole entry, looked up): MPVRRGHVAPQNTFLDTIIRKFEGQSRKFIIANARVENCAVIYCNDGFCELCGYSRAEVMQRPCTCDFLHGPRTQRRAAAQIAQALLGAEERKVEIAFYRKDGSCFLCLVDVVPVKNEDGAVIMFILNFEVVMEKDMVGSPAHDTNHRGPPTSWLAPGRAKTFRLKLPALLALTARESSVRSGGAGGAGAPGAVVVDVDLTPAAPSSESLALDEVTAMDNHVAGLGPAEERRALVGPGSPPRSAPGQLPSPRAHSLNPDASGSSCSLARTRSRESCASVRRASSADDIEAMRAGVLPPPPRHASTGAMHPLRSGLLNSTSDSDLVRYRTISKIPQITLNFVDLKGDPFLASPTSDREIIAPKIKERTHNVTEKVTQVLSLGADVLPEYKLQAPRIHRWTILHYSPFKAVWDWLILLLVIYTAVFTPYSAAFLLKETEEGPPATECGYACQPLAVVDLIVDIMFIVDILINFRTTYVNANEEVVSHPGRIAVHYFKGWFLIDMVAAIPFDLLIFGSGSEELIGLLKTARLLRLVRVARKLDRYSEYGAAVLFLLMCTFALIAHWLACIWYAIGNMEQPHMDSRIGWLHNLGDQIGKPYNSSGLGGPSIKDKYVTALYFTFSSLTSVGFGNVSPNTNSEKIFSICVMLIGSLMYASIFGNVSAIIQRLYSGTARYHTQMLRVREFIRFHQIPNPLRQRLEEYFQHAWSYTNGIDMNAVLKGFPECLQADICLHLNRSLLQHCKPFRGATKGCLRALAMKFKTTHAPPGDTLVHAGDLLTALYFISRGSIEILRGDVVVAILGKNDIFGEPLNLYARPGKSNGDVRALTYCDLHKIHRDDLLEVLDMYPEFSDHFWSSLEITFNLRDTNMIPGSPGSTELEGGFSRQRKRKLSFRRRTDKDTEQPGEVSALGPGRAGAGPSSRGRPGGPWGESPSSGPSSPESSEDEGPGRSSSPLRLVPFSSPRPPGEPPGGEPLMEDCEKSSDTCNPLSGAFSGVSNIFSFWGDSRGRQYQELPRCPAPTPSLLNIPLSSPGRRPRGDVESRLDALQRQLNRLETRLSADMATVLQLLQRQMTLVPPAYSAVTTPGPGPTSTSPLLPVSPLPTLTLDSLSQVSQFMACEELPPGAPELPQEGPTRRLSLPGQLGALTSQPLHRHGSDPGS

The assay concerns the target human ether-à-go-go-related gene (hERG) potassium channel (human, UniProt Q12809). As to the kind of experiment: primary screen, population patch clamp on CHO cells stably expressing hERG.
As to `Cn1c(CC(=O)Nc2ccc(Cl)c(Cl)c2)nnc1SCC(=O)N1CCN(c2ccccc2)CC1`, the “hERG current change (%, negative = inhibition) at 1uM” value was found to be 4.2%. The result for `Oc1ccc(Cl)cc1C=Nc1ccccc1Br` reads 11.3%; that for `COCCN(C(=O)COC(=O)/C=C/c1ccc(C(F)(F)F)cc1)c1c(N)n(Cc2ccccc2)c(=O)[nH]c1=O`, 8.12%. The result for `CCOc1ccccc1NC(=O)N1CCCC(c2nc3c(nnn3Cc3ccc(C)cc3)c(=O)[nH]2)C1` (stereo not shown) reads -5.8%; that for `CCN(CC(=O)Nc1c(F)cccc1F)C(=O)c1ccc(C(=O)c2ccccc2)cc1`, -3.47%. The figure for `Cc1cc(NC(=O)Cn2nc3c(cc2=O)CCCC3)ccc1Br` is 15.2%; for `CCOCCCNC(=O)C1CCCN(S(=O)(=O)c2cccc3nsnc23)C1` (stereo not shown) it is 11.1%; for `CCOc1ccccc1NC(=O)C(NCCc1ccc(OC)cc1)c1ccccc1` (stereo not shown) it is 11.3%. As for `CCCc1[nH]nc2c1C1(CCOC1C)C(C#N)=C(N)O2` (stereo not shown), the “hERG current change (%, negative = inhibition) at 1uM” value amounted to 6.85%. The result for `Cc1cc2ccccn2c1C(=O)c1ccc(F)cc1` reads 6.54%. The result for `Cn1c(=O)cc(OCCCC(=O)N2CCN(Cc3ccc4c(c3)OCO4)CC2)c2ccccc21` reads -3.57%; that for `CCN(CC)S(=O)(=O)c1ccc(NC(=O)CSc2ncnc3ccccc23)cc1`, 6.88%.

With `O=C(NCCCN1CCOCC1)/C(=C/c1cccnc1)NC(=O)c1ccccc1`, the “hERG current change (%, negative = inhibition) at 1uM” value is reported as -6%. Consider `CC(C)N=C1NN=C(c2ccc(F)cc2)CS1`, for which the “hERG current change (%, negative = inhibition) at 1uM” value was -0.433%. Regarding `FC(F)(F)c1ccc(Nc2nnnc3ccccc23)cc1`, the “hERG current change (%, negative = inhibition) at 1uM” value is 10.7%. The figure for `COc1cccc(-n2cc(CNC(=O)C3CCC(=O)N(C4CC4)C3)cn2)c1` (stereo not shown) is 7.96%; for `O=[N+]([O-])c1ccccc1/C=N/n1c(COc2ccccc2)n[nH]c1=S` it is 0.17%. As to `O=C(/C=C/c1ccc(Cl)cc1Cl)NC(=S)Nc1ccc(CN2CCOCC2)cc1`, the “hERG current change (%, negative = inhibition) at 1uM” value was -3.79%. Consider `CC(Sc1nnc(COc2ccccc2)n1-c1ccccc1)C(=O)O` (stereo not shown), for which the “hERG current change (%, negative = inhibition) at 1uM” value was 10.6%.

Take `COCCNc1nc(N)c([N+](=O)[O-])c(N2CCCCCC2)n1`: the “hERG current change (%, negative = inhibition) at 1uM” value is listed as 11.6%.

As for `COC(=O)c1ccc(/C=N/NC(=O)c2ccc3nc[nH]c3c2)cc1`, the “hERG current change (%, negative = inhibition) at 1uM” value was found to be 24.6%. With `CC(C)C(c1nnnn1Cc1ccco1)N1CCN(c2nc3ccccc3s2)CC1` (stereo not shown), the “hERG current change (%, negative = inhibition) at 1uM” value is 1.27%.

Take `CC1=NCCN1CCNC(=O)Nc1ccc(C(C)(C)C)cc1`: the “hERG current change (%, negative = inhibition) at 1uM” value is recorded as 9.73%. Regarding `CCCCCCOC(=O)c1ccc(OC(=O)c2cccnc2)cc1`, the “hERG current change (%, negative = inhibition) at 1uM” value is reported as 11.2%. The figure for `Cc1c(/C=N/NC(=O)C(NC(=O)c2ccc3c(c2)OCO3)C(C)C)c2ccccc2n1C` (stereo not shown) is 6.15%; for `C#CCOCCOCCOCCNc1nc(N2CCN(C(=O)C(Cc3cc4ccccc4[nH]3)n3cc(C(N)Cc4ccc(O)cc4)nn3)CC2)nc(N2CCN(C(=O)C(CCC(=O)O)n3cc(C(N)C(C)CC)nn3)CC2)n1.Cl` (stereo not shown) it is 17%. The figure for `O=C(O)CC(c1ccccc1)c1ccccc1` is -10.7%. With `O=C(O)CCSc1nnc(COc2cccc3ccccc23)n1-c1cccc(Cl)c1`, the “hERG current change (%, negative = inhibition) at 1uM” value was determined as 16.3%. The figure for `Cc1ccc(NC(=S)NCc2ccc3[nH]c4c(c3c2)CCCC4)cc1` is 3.05%; for `Cc1cc(Br)cc(Cl)c1OCC(=O)NC(=O)NCc1ccccc1` it is 4.61%. The figure for `O=C(NCC(c1ccco1)N1CCc2ccccc2C1)c1ccc(Br)cc1` (stereo not shown) is 5.24%; for `Cc1cc(CNC(=O)C2CCC(=O)N(Cc3ccccc3F)C2)on1` (stereo not shown) it is 13.1%. The result for `CCC(=O)Nc1c(C(=O)N2CCCCCC2)cnn1-c1ccc(C)c(C)c1` reads -2.23%.

On to `O=[N+]([O-])c1cccc(-c2ccc(/C=N/NC(=S)Nc3ccccc3)o2)c1`, for which the “hERG current change (%, negative = inhibition) at 1uM” value is reported as 13.3%. With `Cc1cc(NC(=O)COc2c(C)cccc2C)no1`, the “hERG current change (%, negative = inhibition) at 1uM” value came to 1.95%. Take `COc1ccc([N+](=O)[O-])cc1/C=N/Nc1nn[nH]n1`: the “hERG current change (%, negative = inhibition) at 1uM” value is recorded as 14.8%. For the compound `CCOC(=O)C1CCCN(c2ccc(NC(=O)c3snc4c(=O)[nH]c(C)nc34)cc2)C1` (stereo not shown), the “hERG current change (%, negative = inhibition) at 1uM” value came to 12.4%. `COc1ccc(S(=O)(=O)NCC(c2cccnc2)N2CCN(Cc3ccccc3)CC2)cc1` (stereo not shown): the “hERG current change (%, negative = inhibition) at 1uM” value is given as -26.7%. The figure for `Cc1ccccc1NC(=O)N(CCc1nc2ccccc2[nH]1)Cc1ccccc1` is 7.58%; for `O=C(CCCCCNC(=O)c1ccccc1)N/N=C/c1ccc(F)cc1` it is 7.93%. The result for `COc1ccc(OC)c(C2=NOC(C(=O)N3CCN(c4ccccc4)CC3)C2)c1` (stereo not shown) reads 7.47%. The result for `Cn1c(SCC(=O)N(Cc2ccccc2)C(C)(C)C)nc2ccccc21` reads 4.37%; that for `CC(NC(=O)c1ccncc1)C(c1cccs1)N1CCOCC1` (stereo not shown), 6.92%.

(Values after publication PMC4336329 (PLoS ONE, 2015).)
